{"source": "the supplement of paper PMC8728848", "assay_in_all_cases": "glycan array binding signal (z-score within array); higher = stronger binding", "conditions_in_all_cases": "glycan notation: IUPAC condensed, linker removed", "key": {"[1]": {"biological_target": "GlcNAc(b1-4)GlcNAc(b1-4)GlcNAc(b1-4)GlcNAc(b1-4)GlcNAc(b1-4)GlcNAc", "procedure,_shortened": "(§1)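 Arrays were curated from the Consortium for Functional Glycomics database, 3228 in total, and kept only where the protein sequence was available. Binding is expressed as a within-array Z-score. This score was averaged across arrays of the same protein sequence at different concentrations or buffers and across linkers, and negative values can be read as non-binding.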"}, "[2]": {"biological_target": "GlcNAc(b1-4)[GlcNAc(b1-6)]GalNAc", "procedure,_shortened": "as §1"}, "[3]": {"biological_target": "GlcNAc(b1-6)Gal(b1-4)GlcNAc", "procedure,_shortened": "as §1"}, "[4]": {"biological_target": "GlcNAc(b1-6)GalNAc", "procedure,_shortened": "as §1"}, "[5]": {"biological_target": "GlcNAc6S(b1-3)Gal(b1-4)GlcNAc", "procedure,_shortened": "as §1"}, "[6]": {"biological_target": "Kdn(a2-3)Gal(b1-3)GalNAc", "procedure,_shortened": "as §1"}, "[7]": {"biological_target": "Kdn(a2-3)Gal(b1-3)GlcNAc", "procedure,_shortened": "as §1"}, "[8]": {"biological_target": "Kdn(a2-3)Gal(b1-4)Glc", "procedure,_shortened": "as §1"}, "[9]": {"biological_target": "Kdn(a2-3)Gal(b1-4)GlcNAc", "procedure,_shortened": "as §1"}, "[10]": {"biological_target": "Kdn(a2-3)Gal(b1-4)[Fuc(a1-3)]GlcNAc", "procedure,_shortened": "as §1"}, "[11]": {"biological_target": "Kdn(a2-6)Gal(b1-4)GlcNAc", "procedure,_shortened": "as §1"}, "[12]": {"biological_target": "Man(a1-2)Man(a1-2)Man(a1-3)Man", "procedure,_shortened": "as §1"}, "[13]": {"biological_target": "Man(a1-2)Man(a1-2)Man(a1-6)[Man(a1-3)]Man", "procedure,_shortened": "as §1"}, "[14]": {"biological_target": "Man(a1-2)Man(a1-3)Man", "procedure,_shortened": "as §1"}, "[15]": {"biological_target": "Man(a1-2)Man(a1-3)[Man(a1-2)Man(a1-6)]Man", "procedure,_shortened": "as §1"}, "[16]": {"biological_target": "Man(a1-2)Man(a1-3)[Man(a1-2)Man(a1-6)]Man(a1-6)[Man(a1-2)Man(a1-2)Man(a1-3)]Man", "procedure,_shortened": "as §1"}, "[17]": {"biological_target": "Man(a1-2)Man(a1-3)[Man(a1-2)Man(a1-6)]Man(a1-6)[Man(a1-2)Man(a1-2)Man(a1-3)]Man(b1-4)GlcNAc(b1-4)GlcNAc", "procedure,_shortened": "as §1"}, "[18]": {"biological_target": "Man(a1-2)Man(a1-3)[Man(a1-6)]Man(a1-6)[Man(a1-2)Man(a1-3)]Man(b1-4)GlcNAc(b1-4)GlcNAc", "procedure,_shortened": "as §1"}, "[19]": {"biological_target": "Man(a1-2)Man(a1-6)[Man(a1-3)]Man(a1-6)[Man(a1-2)Man(a1-2)Man(a1-3)]Man", "procedure,_shortened": "as §1"}, "[20]": {"biological_target": "Man(a1-2)Man(a1-6)[Man(a1-3)]Man(a1-6)[Man(a1-2)Man(a1-2)Man(a1-3)]Man(b1-4)GlcNAc(b1-4)GlcNAc", "procedure,_shortened": "as §1"}, "[21]": {"biological_target": "Man(a1-3)[Man(a1-6)]Man", "procedure,_shortened": "as §1"}, "[22]": {"biological_target": "Man(a1-3)[Man(a1-6)]Man(a1-6)[Man(a1-2)Man(a1-3)]Man(b1-4)GlcNAc(b1-4)GlcNAc", "procedure,_shortened": "as §1"}, "[23]": {"biological_target": "Man(a1-3)[Man(a1-6)]Man(a1-6)[Man(a1-3)]Man", "procedure,_shortened": "as §1"}, "[24]": {"biological_target": "Man(a1-3)[Man(a1-6)]Man(a1-6)[Man(a1-3)]Man(b1-4)GlcNAc(b1-4)GlcNAc", "procedure,_shortened": "as §1"}, "[25]": {"biological_target": "Man(a1-3)[Man(a1-6)]Man(b1-4)GlcNAc(b1-4)GlcNAc", "procedure,_shortened": "as §1"}, "[26]": {"biological_target": "Man(a1-3)[Man(a1-6)]Man(b1-4)GlcNAc(b1-4)[Fuc(a1-6)]GlcNAc", "procedure,_shortened": "as §1"}, "[27]": {"biological_target": "Man(a1-6)Man", "procedure,_shortened": "as §1"}, "[28]": {"biological_target": "Man(b1-4)GlcNAc", "procedure,_shortened": "as §1"}, "[29]": {"biological_target": "MurNAc(b1-4)GlcNAc", "procedure,_shortened": "as §1"}, "[30]": {"biological_target": "Neu5Ac(a2-3)Gal", "procedure,_shortened": "as §1"}, "[31]": {"biological_target": "Neu5Ac(a2-3)Gal(b1-3)GalNAc", "procedure,_shortened": "as §1"}, "[32]": {"biological_target": "Neu5Ac(a2-3)Gal(b1-3)GalNAc(b1-3)Gal(a1-4)Gal(b1-4)Glc", "procedure,_shortened": "as §1"}, "[33]": {"biological_target": "Neu5Ac(a2-3)Gal(b1-3)GalNAc(b1-4)[Neu5Ac(a2-3)]Gal(b1-4)Glc", "procedure,_shortened": "as §1"}, "[34]": {"biological_target": "Neu5Ac(a2-3)Gal(b1-3)GalNAc(b1-4)[Neu5Ac(a2-8)Neu5Ac(a2-3)]Gal(b1-4)Glc", "procedure,_shortened": "as §1"}, "[35]": {"biological_target": "Neu5Ac(a2-3)Gal(b1-3)GalNAc6S", "procedure,_shortened": "as §1"}, "[36]": {"biological_target": "Neu5Ac(a2-3)Gal(b1-3)GlcNAc", "procedure,_shortened": "as §1"}, "[37]": {"biological_target": "Neu5Ac(a2-3)Gal(b1-3)GlcNAc(b1-2)Man", "procedure,_shortened": "as §1"}}, "note": "The other results are listed elsewhere or left out."}
{"binder": "Cohesin-hMARCO (Homo sapiens) (protein) LDDLDAVRIKVDTVNAKPGDTVRIPVRFSGIPSKGIANCDFVYSYDPNVLEIIEIEPGDIIVDPNPDKSFDTAVYPDRKIIVFLFAEDSGTGAYAITKDGVFATIVAKVKEGAPNGLSVIKFVEVGGFANNDLVEQKTQFFDGGANVGDTTEPATPTTPVTTPTTTDDLDAASVRIVGSSNRGRAEVYYSGTWGTICDDEWQNSDAIVFCRMLGYSKGRALYKVGAGTGQIWLDNVQCRGTESTLWSCTKNSWGHHDCSHEEDAGVECSVHHHHHH", "values": [{"measurement": "glycan array binding signal (z-score)", "setting": "[1]", "result": -0.301}, {"measurement": "glycan array binding signal (z-score)", "setting": "[2]", "result": 0.127}, {"measurement": "glycan array binding signal (z-score)", "setting": "[3]", "result": -0.52}, {"measurement": "glycan array binding signal (z-score)", "setting": "[4]", "result": 0.567}, {"measurement": "glycan array binding signal (z-score)", "setting": "[5]", "result": -0.486}, {"measurement": "glycan array binding signal (z-score)", "setting": "[6]", "result": -0.515}, {"measurement": "glycan array binding signal (z-score)", "setting": "[7]", "result": -0.49}, {"measurement": "glycan array binding signal (z-score)", "setting": "[8]", "result": -0.554}, {"measurement": "glycan array binding signal (z-score)", "setting": "[9]", "result": -0.517}, {"measurement": "glycan array binding signal (z-score)", "setting": "[10]", "result": -0.323}, {"measurement": "glycan array binding signal (z-score)", "setting": "[11]", "result": -0.537}, {"measurement": "glycan array binding signal (z-score)", "setting": "[12]", "result": 3.08}, {"measurement": "glycan array binding signal (z-score)", "setting": "[13]", "result": -0.482}, {"measurement": "glycan array binding signal (z-score)", "setting": "[14]", "result": -0.004}, {"measurement": "glycan array binding signal (z-score)", "setting": "[15]", "result": -0.394}, {"measurement": "glycan array binding signal (z-score)", "setting": "[16]", "result": -0.423}, {"measurement": "glycan array binding signal (z-score)", "setting": "[17]", "result": -0.38}, {"measurement": "glycan array binding signal (z-score)", "setting": "[18]", "result": -0.232}, {"measurement": "glycan array binding signal (z-score)", "setting": "[19]", "result": -0.013}, {"measurement": "glycan array binding signal (z-score)", "setting": "[20]", "result": -0.494}, {"measurement": "glycan array binding signal (z-score)", "setting": "[21]", "result": -0.423}, {"measurement": "glycan array binding signal (z-score)", "setting": "[22]", "result": -0.517}, {"measurement": "glycan array binding signal (z-score)", "setting": "[23]", "result": -0.394}, {"measurement": "glycan array binding signal (z-score)", "setting": "[24]", "result": -0.579}, {"measurement": "glycan array binding signal (z-score)", "setting": "[25]", "result": -0.447}, {"measurement": "glycan array binding signal (z-score)", "setting": "[26]", "result": -0.571}, {"measurement": "glycan array binding signal (z-score)", "setting": "[27]", "result": 3.28}, {"measurement": "glycan array binding signal (z-score)", "setting": "[28]", "result": -0.552}, {"measurement": "glycan array binding signal (z-score)", "setting": "[29]", "result": -0.467}, {"measurement": "glycan array binding signal (z-score)", "setting": "[30]", "result": 0.136}, {"measurement": "glycan array binding signal (z-score)", "setting": "[31]", "result": -0.475}, {"measurement": "glycan array binding signal (z-score)", "setting": "[32]", "result": -0.29}, {"measurement": "glycan array binding signal (z-score)", "setting": "[33]", "result": -0.483}, {"measurement": "glycan array binding signal (z-score)", "setting": "[34]", "result": -0.362}, {"measurement": "glycan array binding signal (z-score)", "setting": "[35]", "result": 1.01}, {"measurement": "glycan array binding signal (z-score)", "setting": "[36]", "result": -0.443}, {"measurement": "glycan array binding signal (z-score)", "setting": "[37]", "result": -0.035}]}
